Screen size: about 110,000 compounds; about 230 (0.21%) showed an effect of 50% or more. The list shows a part of the results.
Molecular target: DPAP1 (Plasmodium falciparum, UniProt Q8IIJ9)
Test: primary screen, percent inhibition; read by cleavage of a fluorogenic dipeptide substrate; higher = more effect of the substance
Set-up: species or system P. falciparum D10 trophozoite lysates; single well
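Note: 30 min substrate incubation versus DMSO and 10 µM JCP410 controls.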

Chain of DPAP1 (Q8IIJ9 whole entry, looked up): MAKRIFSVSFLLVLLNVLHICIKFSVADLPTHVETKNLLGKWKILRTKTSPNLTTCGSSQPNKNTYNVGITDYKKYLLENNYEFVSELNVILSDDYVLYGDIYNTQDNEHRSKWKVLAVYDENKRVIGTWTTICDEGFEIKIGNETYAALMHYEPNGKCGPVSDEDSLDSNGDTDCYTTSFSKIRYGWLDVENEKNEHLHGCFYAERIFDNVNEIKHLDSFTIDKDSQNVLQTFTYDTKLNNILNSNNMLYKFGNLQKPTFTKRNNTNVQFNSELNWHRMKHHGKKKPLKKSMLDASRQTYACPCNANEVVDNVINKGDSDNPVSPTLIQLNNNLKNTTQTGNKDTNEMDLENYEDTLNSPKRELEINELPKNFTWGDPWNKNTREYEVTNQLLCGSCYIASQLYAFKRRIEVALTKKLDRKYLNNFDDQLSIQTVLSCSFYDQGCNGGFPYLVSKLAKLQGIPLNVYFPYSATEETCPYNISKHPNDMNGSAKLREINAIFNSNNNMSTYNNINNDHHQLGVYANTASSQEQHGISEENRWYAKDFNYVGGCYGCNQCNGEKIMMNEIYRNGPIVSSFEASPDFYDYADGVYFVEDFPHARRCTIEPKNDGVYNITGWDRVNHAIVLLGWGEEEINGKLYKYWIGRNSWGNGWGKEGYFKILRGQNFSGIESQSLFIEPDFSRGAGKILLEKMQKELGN

First: CCCOc1ccc(C(=O)Nc2ccc(N3CCN(S(C)(=O)=O)CC3)cc2)cc1
Second: CCC(C(=O)N1CCN(c2cccc(Cl)c2)CC1)c1ccccc1 (centres unmarked)
The “% Inhibition @ 10 uM” value of the first is higher: 1.19% for the first, -4.72% for the second.

Compared with O=C(NCCc1cccs1)c1ccc(CN2CC(=O)N3CCCCC3C2=O)cc1 (centres unmarked), CC1CCCCN1CCNC(=O)Cn1ncc2c3ccccc3n(Cc3ccccc3)c2c1=O (centres unmarked) is higher in “% Inhibition @ 10 uM” value: 4.67% for the first, 14.6% for the second.

Going from N#Cc1ccccc1CN1C(=O)S/C(=C/c2ccc(OCC(=O)O)c(Br)c2)C1=O to N=C1/C(=C\c2ccc(OCc3ccccc3)c(Cl)c2)C(=O)N=C2SC(N3CCOCC3)=NN12, the “% Inhibition @ 10 uM” value falls from 4.06% to -5.51%.

First: Cc1nc(-c2ccccc2)nc(-c2ccccc2)n1
Second: Cc1onc(-c2ccccc2)c1C(=O)Nc1ccccc1F
The “% Inhibition @ 10 uM” value of the first is lower: -2.59% for the first, 5.53% for the second.

First: O=[N+]([O-])c1ccc(CN2CCSCC2)o1
Second: CCOC(=O)C1CCCCN1Cc1ccc(Br)s1 (centres unmarked)
The “% Inhibition @ 10 uM” value of the first is higher: 3.1% for the first, -0.294% for the second.

First: C1=NCCn2cccc21
Second: O=C1c2ccccc2C(=O)N1CN1CCCCCC1
The “% Inhibition @ 10 uM” value of the first is lower: -4.61% for the first, 2.76% for the second.

Going from COc1cc(OC)cc(C(=O)N(CCCN(C)C)c2nc3c(OC)cccc3s2)c1 to COc1ccc(-c2nc3n(n2)C(c2cc(OC)ccc2OC)C2=C(O)CCCC2=N3)cc1 (centres unmarked), the “% Inhibition @ 10 uM” value rises from -0.0255% to 0.275%.

Going from O=C1C2CCCCC2C(=O)N1CCc1c[nH]c2ccccc12 (centres unmarked) to CC(CCc1ccccc1)NC(=O)c1[nH]nc2c1CCCC2 (centres unmarked), the “% Inhibition @ 10 uM” value falls from 4.76% to 3.24%.

First: Cc1c(C=O)c(C(=O)O)c(C)n1C
Second: Cc1ccc(/N=C2\SC(C(=O)Nc3ccccc3F)CC(=O)N2C)cc1C (centres unmarked)
The “% Inhibition @ 10 uM” value of the first is higher: 6.13% for the first, -3.25% for the second.

First: CCCCN(C)CCCNC(=O)C1CCN(Cc2nc(-c3ccc(Cl)cc3)oc2C)CC1
Second: Cc1cc(C)c2nc(N3CCCC(C(=O)NCCc4ccccc4)C3)sc2c1 (centres unmarked)
The “% Inhibition @ 10 uM” value of the first is lower: -8.65% for the first, -3.35% for the second.

Compared with Cc1ccc(OCCCCCCc2c(C)n[nH]c2C)cc1C, Cc1ccc(Nc2nc3cc(C)ccc3cc2C)c(C)c1 is higher in “% Inhibition @ 10 uM” value: -0.351% for the first, 2.22% for the second.

Compared with O=C(CCS(=O)(=O)c1ccc(Br)cc1)NC12CC3CC(CC(C3)C1)C2, O=C(CCS(=O)(=O)Cc1cccc(Cl)c1)NCCc1ccccc1 is higher in “% Inhibition @ 10 uM” value: -2.5% for the first, 2.18% for the second.

First: O=C(C(Cc1ccccc1)N1C(=O)C2C3C=CC(C3)C2C1=O)N1CCOCC1 (centres unmarked)
Second: O=C(Nc1ccccc1O)c1ccc(Cl)c(S(=O)(=O)N2CCOCC2)c1
The “% Inhibition @ 10 uM” value of the first is higher: -0.551% for the first, -1.02% for the second.

Going from Cc1cc(C)n(-c2ncc(-c3ccc([N+](=O)[O-])cc3)cn2)n1 to CC(=O)Nc1ccc(NC(=O)c2c([N+](=O)[O-])cnn2C)cc1, the “% Inhibition @ 10 uM” value falls from 4.22% to -4.43%.

Going from CCOC(=O)C1=C(CC)OC(N)=C(C#N)C1c1cccc(Br)c1 (centres unmarked) to C#CCOc1ccc2c(c1)c(C(C)=O)c(C)n2Cc1ccccc1, the “% Inhibition @ 10 uM” value falls from 3.1% to 2.17%.

Going from CCN1CCN(Cc2c(NC(=O)c3ccccc3F)sc(C)c2C)CC1 to COc1ccccc1C(=O)Nc1cccc(F)c1, the “% Inhibition @ 10 uM” value falls from -1.04% to -5.29%.

Compared with Cc1ccc2c(c1)cc1c(=O)n(Cc3ccccc3Cl)ncn12, Cn1c(=O)c2c(nc(S)n2Cc2ccccc2)n(C)c1=O is lower in “% Inhibition @ 10 uM” value: 4.36% for the first, -2.89% for the second.

Going from OC1(c2cccs2)C[N+](c2ccccc2)=C2SCCCN21 (centres unmarked) to O=C1C=C(NCc2ccc3c(c2)OCO3)CC(c2ccccc2)C1 (centres unmarked), the “% Inhibition @ 10 uM” value falls from 3.36% to -1.26%.

First: COc1ccc(/C=C(/NC(=O)c2ccc(C)cc2)C(=O)N2CCCCC2)cc1OC
Second: CCc1ccc(/C=C2/SC(N3CCCCC3)=NC2=O)cc1
The “% Inhibition @ 10 uM” value of the first is lower: -3.06% for the first, 1.57% for the second.

Going from Clc1ccc(Nc2nc(-c3ccccn3)cs2)cc1 to O=C(c1cc2ccccc2oc1=O)N(Cc1ccccc1)c1ccccn1, the “% Inhibition @ 10 uM” value falls from 4.26% to -8.82%.

Going from CCCC(C#CCN1CCCCC1)OC(C)=O (centres unmarked) to CC(CCCC(C)(C)O)NC1CC2CCC1C2 (centres unmarked), the “% Inhibition @ 10 uM” value rises from -0.342% to 1.57%.

Going from O=C(NC1CCCCC1)N1CCN(c2ccc(C(F)(F)F)cn2)CC1 to CC1CC(C)CN(CCCNC(=O)Cn2ncc3c4ccccc4n(C)c3c2=O)C1 (centres unmarked), the “% Inhibition @ 10 uM” value rises from -2.28% to 2.99%.

Going from O=C1NC(=S)N(c2ccc(Cl)cc2)C(=O)/C1=C/c1ccc(O)cc1 to Cc1ccc(S(=O)(=O)c2cnc3c(F)cc(F)cc3c2O)cc1, the “% Inhibition @ 10 uM” value rises from -5.23% to -1.7%.

Compared with COc1ccc(OC)c(/C=C(\C#N)c2nc3ccccc3[nH]2)c1, COc1ccc(CNS(=O)(=O)c2ccc3nc(O)ccc3c2)cc1 is higher in “% Inhibition @ 10 uM” value: -4.4% for the first, 1.36% for the second.

Going from CS(=O)(=O)N(CC(=O)NCCSc1ccccc1)c1ccccc1Cl to CC(=O)c1cccc(NC(=O)CCCC(=O)Nc2cccc(C(C)=O)c2)c1, the “% Inhibition @ 10 uM” value rises from -8.92% to 4.3%.
